Data on 44 sequences can be found in the supplement of paper PMC11417369.

± gives the standard deviation of the averaged measurements. The list shows a part of the results.

The assay relates to PfAP2-I AP2 domain 3 (GST-tagged). The experiment in a line: gcPBM binding intensity (ln(normalized median fluorescence intensity)); higher = stronger DNA binding. The gist of the method: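 Each value is the highest Masliner-normalised natural-log median intensity across replicate spots of either orientation of a probe. The probes were primer-extended double-stranded 36-bp intergenic genomic sequences on an Agilent 4 × 180k array, alongside negative controls, exposed for 1 h to GST-tagged P. falciparum DNA-binding domains expressed in E. coli. Bound protein was picked up with Alexa488 anti-GST antibody and scanned at 488 nm.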
As to “ATTTCCCCTTTTTATTGTACATTTTTATTTGTTACT [XGTACX_site4845]”, the “gcPBM binding intensity (ln)” value is 8.2 ± 0.91.

On to “TAAAAAAAAACAGAAACACACATTATTCATATATAT [CACACA_site2049]”, for which the “gcPBM binding intensity (ln)” value stood at 7.82 ± 0.45.

Take “AAAATATTTATGTATGCATGTTGTAATATTTCTTTA [TGCATGCA_site296]”: the “gcPBM binding intensity (ln)” value is 7.96 ± 0.65.

For “TATGCTATATATTTAGTGCATATATATAACTTTTAT [GTGCAC_site9902]”, the “gcPBM binding intensity (ln)” value came out at 10.1 ± 0.36.

Take “TATTAGCATGTTATTACACACAATATAAGATATATA [CACACA_site6775]”: the “gcPBM binding intensity (ln)” value worked out at 7.69 ± 0.52.

Take “AATATATATTTATAAACACACACCAAAATTTGTGCT [CACACA_site3091]”: the “gcPBM binding intensity (ln)” value is 7.8 ± 0.5.

“ACATTTTGTGTTTTAGCACACAATTTTTCAGAATAT [CACACA_site2961]”: the “gcPBM binding intensity (ln)” value came to 8.38 ± 0.4.

Regarding “ATATTATAATATTTATGTACATATATATAATATATA [XGTACX_site1633]”, the “gcPBM binding intensity (ln)” value was 7.7 ± 0.29.

Consider “ATATGTAGTTTTTACCTAATAAAAAAAAAAAAAAAA [CACACA_negctrl_site672]”, for which the “gcPBM binding intensity (ln)” value was 8.09 ± 0.79.

Consider “TTGTATTTACACGATCAACCAAATGGTATATAAATA [GTGCAC_negctrl_site167]”, for which the “gcPBM binding intensity (ln)” value turned out to be 7.82 ± 0.29.

On to “TAAACATATAAAAAGGGTACACATTAAACATAGTAT [XGTACX_site7096]”, for which the “gcPBM binding intensity (ln)” value stood at 7.99 ± 0.67.

Turning to “AAATCATTCCTTTATTCACACAATATCTGTATTTAT [CACACA_site4407]”, the “gcPBM binding intensity (ln)” value turned out to be 7.91 ± 0.72.

In the case of “ATAGCTAAGATAGCTTGTACATATATTTACATATAT [XGTACX_site3694]”, the “gcPBM binding intensity (ln)” value came out at 7.3 ± 0.45.

In the case of “AAAACAAATTAAAATCGTACAATTATAATGTTAATG [XGTACX_site180]”, the “gcPBM binding intensity (ln)” value was 7.5 ± 0.41.

Consider “TATAAAATAAAAATTATATATTTTAAATGGATACAA [TGCATGCA_negctrl_site284]”, for which the “gcPBM binding intensity (ln)” value is 7.59 ± 0.59.

For “ATGCACATTTATAAAAGTACATGTATGTAATATGTT [XGTACX_site830]”, the “gcPBM binding intensity (ln)” value amounted to 7.84 ± 0.5.

As to “ATTTAAATGAAAAAATGTACAAAAAGATTTAAACTC [XGTACX_site1489]”, the “gcPBM binding intensity (ln)” value was determined as 8.13 ± 0.49.

For the sequence “TATAATAAATCATATGCATGTTGAAAAAAAAAAAAA [TGCATGCA_site923]”, the “gcPBM binding intensity (ln)” value stood at 8.1 ± 0.75.

Turning to “ATTTGAGAGTTAACAAAATATTTGGCCATCTTTTAT [XGTACX_negctrl_site447]”, the “gcPBM binding intensity (ln)” value amounted to 7.54 ± 0.42.

For the sequence “AATGTCCTTATTTGCACACACACATATAAGAAATTT [CACACA_site3186]”, the “gcPBM binding intensity (ln)” value stood at 9.91 ± 0.23.

In the case of “AACTCATAGCGGTGTGCACACAAAAAATTAAAAAAA [CACACA_site3033]”, the “gcPBM binding intensity (ln)” value amounted to 9.9 ± 0.2.

With “TCATAAATGAAACACACACACACATCTGGATACCCC [CACACA_site3332]”, the “gcPBM binding intensity (ln)” value amounted to 8.26 ± 0.38.

Consider “ATTATATATATAAAGTGTACAAAAAAAAAAAAAAAA [XGTACX_site3134]”, for which the “gcPBM binding intensity (ln)” value is 8.18 ± 0.54.

For “AATCAATATAAATAAAATTTTTAATTTTAACCCTAA [GTGCAC_negctrl_site266]”, the “gcPBM binding intensity (ln)” value stood at 7.36 ± 0.38.

Take “GAGATGACATTACACAGTACCCAGGAAATCTACGGA [XGTACX_site4931]”: the “gcPBM binding intensity (ln)” value came out at 7.54 ± 0.71.

On to “TATATATTGTTATATACACACATGTATATAAAAAAT [CACACA_site3221]”, for which the “gcPBM binding intensity (ln)” value was found to be 7.7 ± 0.47.

Take “CAAAAAAGGTCCCGGAGTACATATATAATTTTTTTT [XGTACX_site458]”: the “gcPBM binding intensity (ln)” value is 7.92 ± 0.33.

Regarding “ATTGTCCTAAATACTACAAAGTAGATCTTTAATATT [CACACA_negctrl_site1795]”, the “gcPBM binding intensity (ln)” value was found to be 7.53 ± 0.4.

For “TAATTCCATAAGTAAACACACAAATGCCAAAATTTT [CACACA_site3205]”, the “gcPBM binding intensity (ln)” value turned out to be 7.89 ± 0.63.

For the sequence “GTGCGTGCGTGTACTTAACACACATAATATGTATTT [CACACA_site8336]”, the “gcPBM binding intensity (ln)” value came out at 8.85 ± 0.085.

For TCCATATGCAAACTGGTGCACAAGTAGCTTTTATAT, the “gcPBM binding intensity (ln)” value is 11.15 ± 0.028.

In the case of “TTTCTTTTTCTAGTTATTTTTACTTATCCCTAATTT [TGCATGCA_negctrl_site460]”, the “gcPBM binding intensity (ln)” value came out at 7.71 ± 0.6.

With “TTATAATTAAGATATAATCAATAATAACAAATGAAC [CACACA_negctrl_site1690]”, the “gcPBM binding intensity (ln)” value worked out at 7.82 ± 0.44.

In the case of “TTCTTTGCTTCTGTTTCACACATTTTTAAAATAAGC [CACACA_site4741]”, the “gcPBM binding intensity (ln)” value came out at 8.54 ± 0.59.

In the case of “TTAAGCCGCAATATGGGTACATAGGAAGAAGGGGAA [XGTACX_site8397]”, the “gcPBM binding intensity (ln)” value was 8.01 ± 0.51.

With “ATATATAAAAATATTTGTACATATAGTTATATTTAT [XGTACX_site6114]”, the “gcPBM binding intensity (ln)” value is 7.61 ± 0.4.

With “TTAAAGGGAATGTATACACACGTTTCTCTATGTTAT [CACACA_site4793]”, the “gcPBM binding intensity (ln)” value worked out at 7.49 ± 0.81.

As to “TTTTTCCCCCTTTTTTTGATTTTTATCTTAATTCTA [TGCATGCA_negctrl_site287]”, the “gcPBM binding intensity (ln)” value came to 7.67 ± 0.28.

Consider ATATAATAACAAAAGGTGCGCATTAAGACAAAAAAA, for which the “gcPBM binding intensity (ln)” value turned out to be 10.08 ± 0.028.

Take “TATTATATTGTTCATTTACACTTTCATTTTAAAAAA [CACACA_negctrl_site260]”: the “gcPBM binding intensity (ln)” value stood at 8.05 ± 0.54.

For “AAGGATTATTTTAATCGTACATGTGTAAATAATATA [XGTACX_site6177]”, the “gcPBM binding intensity (ln)” value amounted to 7.87 ± 0.49.

As to “TTTTTTCATTTTTTATTTTTTTATTTTTTACATATT [GTGCAC_negctrl_site137]”, the “gcPBM binding intensity (ln)” value was 7.76 ± 0.49.

In the case of “TTTTTTAAAATAATAGGTACACATAAAAAAAAAAAA [XGTACX_site2517]”, the “gcPBM binding intensity (ln)” value was 8.2 ± 0.56.

Take “TATATATATAGACACACACACATATAAATAAATAAA [CACACA_site444]”: the “gcPBM binding intensity (ln)” value turned out to be 8.55 ± 0.23.
